The subject of series [1] is CC(/C=C/C(O)=C1/C(=O)CNC1=O)=C\[C@@H](C)[C@H]1O[C@@]2(C)O[C@H](C(=O)[C@@H]3O[C@@]32C)[C@@H]1C. Briefly: purified protein, by the assay type. To be noted: other: compound as substrate; P450 TamI L101A_L295I.
Series [2] concerns CC1=CC(=O)[C@H]2O[C@]1(C)O[C@H]([C@H](C)/C=C(C)/C=C/C(O)=C1/C(=O)CNC1=O)[C@H]2C. Briefly: purified protein, by the assay type. To be noted: other: compound as substrate; P450 TamI L101A_L295I.
The subject of series [3] is CC1=CC[C@H]2O[C@]1(C)O[C@H]([C@H](C)/C=C(C)/C=C/C(O)=C1/C(=O)CNC1=O)[C@H]2C. Briefly: purified protein, by the assay type. To be noted: other: compound as substrate; P450 TamI L101A_L295I.
Series [4] relates to CC(/C=C/C(O)=C1/C(=O)CNC1=O)=C\[C@@H](C)[C@H]1O[C@@]2(C)O[C@H](C(=O)[C@@H]3O[C@@]32C)[C@@H]1C. Briefly: Michaelis–Menten kinetics, TamI L244A_L295V. In kind it is biochemical, Streptomyces sp. 307-9. To be noted: other: compound as substrate; P450 TamI L244A_L295V.
For series [5], the system named is CC(C=CC(O)=C1C(=O)CNC1=O)=CC(C)C1OC2(C)OC(C(O)C=C2C)C1C. Briefly: Michaelis–Menten kinetics, TamI L244A_L295V. The format is biochemical, Streptomyces sp. 307-9. The following applies: other: compound as substrate; P450 TamI L244A_L295V.
For series [6], the system named is CC1=CC(=O)[C@H]2O[C@]1(C)O[C@H]([C@H](C)/C=C(C)/C=C/C(O)=C1/C(=O)CNC1=O)[C@H]2C. Put plainly: Michaelis–Menten kinetics, TamI L244A_L295V. The format is biochemical, Streptomyces sp. 307-9. To be noted: other: compound as substrate; P450 TamI L244A_L295V.

The kcat/Km is the second-order rate constant that governs catalysis at low substrate concentration. As a reminder, the Km is the substrate concentration at which the rate is half of its maximum. A word on the kcat: it is the maximal rate divided by the concentration of active sites.

As for “P450 TamI L101A_L295I (Streptomyces sp. 307-9; L101A/L295I)”, the catalytic efficiency (kcat/Km) in series [1] is 625 M⁻¹ s⁻¹; in series [2] it was 7820 M⁻¹ s⁻¹; in series [3], 28500 M⁻¹ s⁻¹. The figures for the Km in series [2] and in series [3] were 120.1 ± 33.5 µM and 3.8 ± 0.6 µM, respectively. The turnover number (kcat) came out at 0.94 ± 0.16 s⁻¹ in series [2] and 0.11 ± 0.005 s⁻¹ in series [3].
With “P450 TamI L244A_L295V (Streptomyces sp. 307-9; L244A/L295V)”, in series [4], the Km is 7.0 ± 0.9 µM, the kcat is 0.0119 ± 0.000383 s⁻¹ and the specificity constant (kcat/Km) was determined as 1700 M⁻¹ s⁻¹. Also, in series [5], the Michaelis constant (Km) was 115.6 ± 22.4 µM, the catalytic constant (kcat) amounted to 0.0212 ± 0.00167 s⁻¹ and the specificity constant (kcat/Km) amounted to 183 M⁻¹ s⁻¹. In series [6], the kcat/Km was 1000 M⁻¹ s⁻¹.

The record behind these values is paper PMC8739753.
